# From the supplement of paper PMC8728848
# The list shows a part of the results.
# Columns and labels:
# Assay in all cases: glycan array binding signal (z-score within array); higher = stronger binding
# Settings in all cases: glycan notation: IUPAC condensed, linker removed
# [1] = target: Gal(b1-4)GlcNAc(b1-3)Gal(b1-4)GlcNAc(b1-3)Gal(b1-4)GlcNAc(b1-3)Gal(b1-4)GlcNAc(b1-3)Gal(b1-4)GlcNAc(b1-2)[Gal(b1-4)GlcNAc(b1-3)Gal(b1-4)GlcNAc(b1-3)Gal(b1-4)GlcNAc(b1-3)Gal(b1-4)GlcNAc(b1-3)Gal(b1-4)GlcNAc(b1-6)]Man(a1-6)[Gal(b1-4)GlcNAc(b1-3)Gal(b1-4)GlcNAc(b1-3)Gal(b1-4)GlcNAc(b1-3)Gal(b1-4)GlcNAc(b1-3)Gal(b1-4)GlcNAc(b1-2)Man(a1-3)]Man(b1-4)GlcNAc(b1-4)[Fuc(a1-6)]GlcNAc
# Summary of the method: (§1)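 The binding signal is a Z-score computed within each array and averaged over linkers. Arrays of the same protein sequence at different concentrations or buffers were also averaged together. Data originate from 3228 arrays in the Consortium for Functional Glycomics database, kept only where the protein sequence was available.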
# [2] = target: Gal(b1-4)GlcNAc(b1-3)Gal(b1-4)GlcNAc(b1-3)Gal(b1-4)GlcNAc(b1-3)Gal(b1-4)GlcNAc(b1-3)Gal(b1-4)GlcNAc(b1-3)Gal(b1-4)GlcNAc(b1-2)Man(a1-3)[Gal(b1-4)GlcNAc(b1-3)Gal(b1-4)GlcNAc(b1-3)Gal(b1-4)GlcNAc(b1-3)Gal(b1-4)GlcNAc(b1-3)Gal(b1-4)GlcNAc(b1-3)Gal(b1-4)GlcNAc(b1-2)Man(a1-6)]Man(b1-4)GlcNAc(b1-4)GlcNAc
# Summary of the method: as §1
# [3] = target: Gal(b1-4)GlcNAc(b1-3)Gal(b1-4)GlcNAc(b1-3)GalNAc
# Summary of the method: as §1
# [4] = target: Gal(b1-4)GlcNAc(b1-3)Gal(b1-4)GlcNAc(b1-3)[Gal(b1-4)GlcNAc(b1-3)Gal(b1-4)GlcNAc(b1-6)]GalNAc
# Summary of the method: as §1
# [5] = target: Gal(b1-4)GlcNAc(b1-3)Gal(b1-4)GlcNAc(b1-6)[Gal(b1-3)]GalNAc
# Summary of the method: as §1
# [6] = target: Gal(b1-4)GlcNAc(b1-3)Gal(b1-4)[Fuc(a1-3)]GlcNAc(b1-3)Gal(b1-4)[Fuc(a1-3)]GlcNAc
# Summary of the method: as §1
# [7] = target: Gal(b1-4)GlcNAc(b1-3)GalNAc
# Summary of the method: as §1
# [8] = target: Gal(b1-4)GlcNAc(b1-3)[Fuc(a1-3)GlcNAc(b1-6)]Gal(b1-4)Glc
# Summary of the method: as §1
# [9] = target: Gal(b1-4)GlcNAc(b1-3)[Gal(b1-4)GlcNAc(b1-6)]Gal(b1-4)GlcNAc
# Summary of the method: as §1
# [10] = target: Gal(b1-4)GlcNAc(b1-3)[GlcNAc(b1-6)]Gal(b1-4)GlcNAc
# Summary of the method: as §1
# [11] = target: Gal(b1-4)GlcNAc(b1-6)Gal(b1-4)GlcNAc
# Summary of the method: as §1
# [12] = target: Gal(b1-4)GlcNAc(b1-6)GalNAc
# Summary of the method: as §1
# [13] = target: Gal(b1-4)GlcNAc(b1-6)[Gal(b1-3)]GalNAc
# Summary of the method: as §1
# [14] = target: Gal(b1-4)GlcNAc(b1-6)[Gal(b1-4)GlcNAc(b1-3)]GalNAc
# Summary of the method: as §1
# Gal(b1-4)GlcNAc6P = target: Gal(b1-4)GlcNAc6P
# Summary of the method: as §1
# Gal(b1-6)Gal = target: Gal(b1-6)Gal
# Summary of the method: as §1
# Gal3S(b1-3)GalNAc = target: Gal3S(b1-3)GalNAc
# Summary of the method: as §1
# Gal3S(b1-3)GlcNAc = target: Gal3S(b1-3)GlcNAc
# Summary of the method: as §1
# [15] = target: Gal3S(b1-3)[Fuc(a1-4)]GlcNAc
# Summary of the method: as §1
binder,measurement,setting,value
B1257 (Bifidobacterium sp) (protein) MKKSIRLVAAIAALAMTAGISACGSSTNGNQAKSDVTAQDVETALTDTSKNVELTVWAYSAKQMEPTVKAFEKKYPHIKINFVNTGAAGDHFTKFQNVVQAQKDIPDVVQMGANKFQQFAVSGALLNFANDSIEKAWSKLYTKTAWAQVHYAGGLYGAPQDATPLANYVRKDILDEHNLQVPESWEDIYNEGIKLHKEDSNKYMGILGSDISFFTNLYRSVGARLWKVNSVDDVELTMNSGKAKEFTEFLQKCLKDGVLEGGTVFTDEFNRSINDGRYATFINENWMGNTYKEQNPSLKGKMVVAAPPSWKGQPYQSSSVGSMMSVSAACPKEKQAAALAFINWLDSDKDAIQSWQDTNNGNFFMAASVYQDDENQRNKKETDGYYANDDVNAVYFDSMDKVNTDWEYLPFMSQVEVVFNDVIVPQMNENGDLVGAMAKAQQELKTYAKDNGFKVTTDAD,glycan array binding signal (z-score),[1],0.107
same,glycan array binding signal (z-score),[2],-0.052
same,glycan array binding signal (z-score),[3],0.005
same,glycan array binding signal (z-score),[4],0.042
same,glycan array binding signal (z-score),[5],0.111
same,glycan array binding signal (z-score),[6],-0.061
same,glycan array binding signal (z-score),[7],-0.132
same,glycan array binding signal (z-score),[8],-0.172
same,glycan array binding signal (z-score),[9],0.039
same,glycan array binding signal (z-score),[10],-0.215
same,glycan array binding signal (z-score),[11],-0.096
same,glycan array binding signal (z-score),[12],-0.038
same,glycan array binding signal (z-score),[13],0.02
same,glycan array binding signal (z-score),[14],-0.012
same,glycan array binding signal (z-score),Gal(b1-4)GlcNAc6P,-0.145
same,glycan array binding signal (z-score),Gal(b1-6)Gal,-0.066
same,glycan array binding signal (z-score),Gal3S(b1-3)GalNAc,-0.071
same,glycan array binding signal (z-score),Gal3S(b1-3)GlcNAc,-0.06
same,glycan array binding signal (z-score),[15],0.023
